Broadly, the inhibition is the drop in the measured response relative to a control, in per cent.

In all, about 340,000 compounds went through this assay and about 6,900 (2%) were called active. No stated cut-off is given here; in the data, active means inhibition above about 30%; inactive means below that, where a call was filed. Only a part is listed here, and it is no random draw. Entries without a call were filed so in the source.

Experimental findings from PubChem BioAssay AID485344 (National Center for Advancing Translational Sciences (NCATS), 2010) are described below.

Chain of UniProt P14416 (P14416 whole entry, looked up): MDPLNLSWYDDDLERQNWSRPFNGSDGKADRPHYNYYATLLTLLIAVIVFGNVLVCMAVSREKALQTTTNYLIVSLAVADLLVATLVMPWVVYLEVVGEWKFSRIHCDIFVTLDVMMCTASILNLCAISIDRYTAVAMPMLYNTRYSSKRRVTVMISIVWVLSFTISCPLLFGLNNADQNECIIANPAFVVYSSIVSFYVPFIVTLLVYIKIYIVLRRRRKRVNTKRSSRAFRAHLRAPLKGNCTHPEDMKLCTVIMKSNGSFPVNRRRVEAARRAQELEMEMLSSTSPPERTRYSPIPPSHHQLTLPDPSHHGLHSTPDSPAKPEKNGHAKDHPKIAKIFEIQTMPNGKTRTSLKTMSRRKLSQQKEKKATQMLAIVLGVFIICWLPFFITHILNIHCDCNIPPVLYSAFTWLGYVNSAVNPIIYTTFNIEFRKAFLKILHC

The target of the experiment is D(2) dopamine receptor (Homo sapiens) (UniProt P14416). In words: HTS Assay for Allosteric Antagonists of the Human D2 Dopamine Receptor: Primary Screen for Antagonists. Further: 0% is about no effect. The note with it: HEK293 TREx D2 cells, calcium flux, dopamine EC80; at 10 µM; stronger effect = higher value. An outline of the steps:
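Calcium mobilization kinetics were recorded at 1 s intervals in tetracycline-induced HEK293 T-REx D2 cells, first for 180 s after compound addition and then 180 s after EC80 dopamine.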
Turning to `CCCN1CCN(CCCNC(=O)c2cc3c(s2)-c2ccccc2OC3)CC1`, the inhibition was -1.82%. Regarding `COCCn1c(C)cc(O)c(C(c2ccccc2Cl)N2CCCCC2)c1=O` (centres undefined), the inhibition was 11.8%. With `Cc1ccc2cc3cc(C(=O)N4CCN(c5ccccc5)CC4)sc3nc2c1`, the inhibition came out at 7.32%.

Regarding `COc1cccc(NC(=O)/C(C#N)=C/c2ccc(-c3ccc(C)cc3)o2)c1`, the inhibition was -0.612%. In the case of `Cc1ccc(S(=O)(=O)Nc2cccc(-c3ccc(N4CCCC4)nn3)c2)c(C)c1`, the inhibition was -23.8%. Regarding `O=C(Cn1cc(S(=O)(=O)Cc2cccc(Cl)c2)c2ccccc21)NCc1ccccc1Cl`, the inhibition worked out at 7.4%. As to `CC(C)CCSc1nnc2n(-c3ccccc3)c(=O)c3c4c(sc3n12)CC(C)CC4` (centres undefined), the inhibition stood at 1.36%. With `CCOC(=O)c1c(C)[nH]c(C)c1S(=O)(=O)NCC(=O)NCc1cccc(Br)c1` the figure was 3.38%.

For the compound `Cc1cc(C)nc(-n2nc(C)c3c2N(Cc2ccccc2C)C(=O)CC3c2ccc(Cl)cc2)n1` (centres undefined), the inhibition was found to be 6.04%. As to `COC(=O)c1ccccc1N(C)S(=O)(=O)c1cc2c3c(c1)CC(=O)N3CCC2`, the inhibition is -15.9%.

On to `CCc1ccc(NC(=O)Cn2c(=O)nc(-c3ccccc3F)c3cc(Cl)ccc32)cc1`, for which the inhibition is 8.64%. With `O=C(Nc1ccc(Oc2ccccc2)cc1)c1ccc(F)c(S(=O)(=O)N2CCN(c3ccccc3F)CC2)c1`, the inhibition was 18.6%.

Turning to `COc1ccc(OC)c(CN2CCN(Cc3cccc4ccccc34)CC2)c1`, the inhibition was active: 71%. Next, `COc1cccc(CNC(=O)CCc2c(C)nc3c4c(C)cc(C)nc4nn3c2C)c1`: 6.2%; `Cc1ccccc1OCC(=O)Nc1nnc(SCc2cc(=O)n3cc(Cl)ccc3n2)s1`: -7.4%. For `Cc1ccc(C)c(CN2C(=O)c3ccccc3S(=O)(=O)c3ccc(C(=O)NCCc4ccc(Cl)cc4)cc32)c1`, the inhibition is 24.2%. Take `CCc1ccccc1NC(=O)C1CCN(c2nc3ccccc3[nH]2)CC1`: the inhibition worked out at 0.0486%. For the compound `Cc1ccc(-n2nc(C)c(C(=O)NCCCN3CCN(c4cccc(Cl)c4)CC3)c2-n2cccc2)cc1`, the inhibition is -13.4%.

In the case of `Cc1ccc(CCNc2nc3ccccc3c3nc(-c4cccnc4)nn23)cc1`, the inhibition worked out at 8.97%. In the case of `COc1ccc(C(=O)NCc2nc(-c3cccc(C)c3)no2)cc1OC`, the inhibition was -20.6%. Take `Cc1nc(-c2ccc(S(=O)(=O)NCc3ccc(F)cc3)cc2)co1`: the inhibition was -15%. Take `COc1cccc(C(=O)COC(=O)c2cc(-c3cccs3)nc3ccccc23)c1`: the inhibition is -7.15%.

As for `Cc1cc(NS(=O)(=O)c2cn(C)c(C)n2)ccc1Br`, the inhibition is -5.74%.

Regarding `Cc1cccn2c(=O)cc(COc3ccc(NC(=O)C(C)C)cc3)nc12`, the inhibition was 11.4%.

On to `Nc1ccc2oc(-c3ccccc3Br)nc2c1`, for which the inhibition is -5.04%. Turning to `Cc1ccc(-n2nc(C)c3c(C)cc(=O)n(CC(=O)Nc4cc(Cl)ccc4C)c32)cc1`, the inhibition came out at 6.37%.

With `Cc1ccccc1NC(=O)CSc1nc2ccc(NC(=O)CCc3ccccc3)cc2s1`, the inhibition is -1.32%.

Consider `COC(=O)c1sccc1S(=O)(=O)N(CC(=O)Nc1ccccc1C)c1ccc(Cl)cc1`, for which the inhibition is -0.413%. In the case of `Cc1ccc2oc(=O)c3cc(C(=O)Nc4ccc(C)c(F)c4)sc3c2c1`, the inhibition was 3.1%. Turning to `CCc1nnc(NC(=O)CSc2nc3c([nH]c4ccccc43)c(=O)n2-c2ccc(F)cc2)s1`, the inhibition was -0.368%. As for `COc1ccccc1/C=C/c1onc(C)c1S(=O)(=O)N1CCC(C(=O)N2CCC(C)CC2)CC1`, the inhibition was -15.8%. Next, `Cc1c(Cl)cccc1NC(=O)c1cc(S(=O)(=O)N2CCCCC2)cn1C`: 16.9%; `Cc1ccc(NC(=O)C2CCCN(C(=O)c3cnn(-c4ccccc4)c3-n3cccc3)C2)cc1` (centres undefined): 0.572%; `COc1ccc(NC(=O)Cn2c(=O)n(Cc3ccco3)c(=O)c3sc4ccccc4c32)c(OC)c1`: -16.1%.

`Cc1nn(-c2ccccc2)c(-n2cccc2)c1C(=O)N1CCN(c2ccccc2)CC1`: the inhibition worked out at 16.4%. Turning to `Cc1cc(OCC(=O)N(Cc2ccc(N(C)C)cc2)Cc2ccco2)cc(C)c1Cl`, the inhibition is 4.72%.

On to `CCOC(=O)c1ccc(OC(=O)c2cn(-c3ccc(C)cc3)c(=O)c3ccccc23)cc1`, for which the inhibition amounted to 4.64%. Regarding `COc1ccc(CNC(=O)c2cc3sccc3n2Cc2ccc(F)cc2)cc1`, the inhibition came to 7.3%. Consider `COCCCN1C(=O)c2[nH]nc(-c3cc(C)ccc3O)c2C1c1ccc(F)cc1` (centres undefined), for which the inhibition was -9.05%. For the compound `O=C(Nc1noc2ccccc12)c1cccc(Cl)c1Cl`, the inhibition was 10.3%. For the compound `Cc1cccc(OCC(=O)Nc2ccc(S(=O)(=O)Nc3onc(C)c3C)cc2)c1C`, the inhibition was -0.158%. With `COc1ccccc1-c1nc2c(c(SCc3cc(C)ccc3C)n1)Cc1c(CO)cnc(C)c1O2`, the inhibition is -1.07%. Next, `CCCNC(=O)Cn1nc(-c2ccc(C)c(C)c2)c2cnc3ccc(OC)cc3c21`: 5.66%; `COc1ccccc1NC(=O)Cn1cnc2ccc(S(=O)(=O)N3CCC(C)CC3)cc2c1=O`: 13.1%. Turning to `CCc1ccc(NC(=O)Cn2c(=O)n(CCCC(=O)NCc3ccccc3Cl)c(=O)c3ccccc32)cc1`, the inhibition was determined as 8.91%. For the compound `Cc1cc(NC(=O)CSc2nc(-c3cccc(F)c3)nc3c2c(=O)n(C)c(=O)n3C)no1`, the inhibition came to 1.26%.

Take `Cc1ccc(-c2nc3cc(NC(=O)Cc4ccc(Cl)cc4)ccc3o2)cc1`: the inhibition stood at 7.78%. With `C=CCn1c(=O)[nH]c2cc(C(=O)N3CC=C(c4ccccc4)CC3)ccc2c1=O`, the inhibition was active: 36%. With `CCOC(=O)C1CCN(CC(O)COc2ccc(C(=O)CC)cc2)CC1` (centres undefined), the inhibition is active: 55.6%. In the case of `CCOC(=O)c1ccc(N2CC3=C(C2=O)C(c2ccc(OC)cc2)NC(=O)N3C)cc1` (centres undefined), the inhibition is 6.28%.

Regarding `Cc1ccc(CN2C3CCCC2CC(NC(=O)c2ccc(C)cc2)C3)cc1` (centres undefined), the inhibition was active: 74.5%. As to `COc1cc(NS(=O)(=O)c2ccc3c(c2)CC(C)N3C(=O)C2CCC2)cc(OC)c1OC` (centres undefined), the inhibition was -0.928%. As for `CCc1ccc(NC(=O)CN2C(=O)C3CCCN3c3ccc(S(=O)(=O)N(CC)CC)cc32)cc1` (centres undefined), the inhibition is 4.48%. As for `COc1ccc(CCNc2ncnc3onc(-c4ccc(Cl)cc4)c23)c(OC)c1`, the inhibition was -3.41%.

Consider `Cn1cc(S(=O)(=O)N2CCCCCC2)cc1C(=O)N1CCN(c2ccccc2F)CC1`, for which the inhibition is -24.1%. On to `O=C(NC1CCCCC1)c1ccc(-c2ccccc2[N+](=O)[O-])o1`, for which the inhibition is active: 59.5%. Turning to `Cc1ccc(N(CC(O)Cn2c3ccccc3c3ccccc32)S(=O)(=O)c2ccc(F)cc2)cc1` (centres undefined), the inhibition stood at 3.78%. For the compound `Cc1ccccc1Nc1sc(C(=O)c2ccccc2)c(N)c1S(C)(=O)=O`, the inhibition came to 4.74%. With `Cc1c(CC(=O)N2CCCCC2)c(=O)oc2cc(O)ccc12`, the inhibition stood at 15.7%. Regarding `COc1ccccc1NC(=O)c1oc2ccccc2c1NC(=O)Cc1cccs1`, the inhibition is -10.5%. Consider `CC(=O)N1CCc2c(sc3c2c(=O)n(CCc2ccccc2)c(=O)n3CC(=O)Nc2ccccc2F)C1`, for which the inhibition stood at 1.92%. `COc1cccc(NC(=O)Cn2c(=O)n(-c3ccccc3)c(=O)c3ccc(C(=O)NCc4ccc5c(c4)OCO5)cc32)c1`: the inhibition is -2.19%. On to `COc1ccc(-n2c(SCC(=O)c3ccc(Cl)cc3)nc3c([nH]c4ccccc43)c2=O)cc1`, for which the inhibition stood at 5.23%. For the compound `COc1ccccc1N1CCN(c2ccc(=O)n(CC(=O)Nc3cc(F)ccc3C)n2)CC1`, the inhibition amounted to 3.47%.

Turning to `COc1cc2c(cc1OC)C(c1ccc(Cl)cc1)N(c1cccc(C#N)c1)C(=O)C2` (centres undefined), the inhibition was -0.921%.

On to `Nc1c(C(=O)Nc2ccc(C(F)(F)F)cc2)sc2nc(-c3cccs3)ccc12`, for which the inhibition is 0.362%. Turning to `COc1ccccc1-c1nnc(C2CCN(S(=O)(=O)c3ccc(CC(C)C)cc3)CC2)o1`, the inhibition was -26%.

Regarding `COc1ccc(NC(=O)c2cn(-c3ccccc3)nc2-c2ccncc2)cc1`, the inhibition is active: 68.4%. Next, `COc1cccc(-c2nc(SCc3cccc(Br)c3)n3[nH]c(=O)cc3n2)c1`: 2.76%; `COc1ccc(CNC(=O)Nc2ccc3c(c2)N(C)C(=O)c2ccccc2S3)cc1OC`: 16%; `COc1cc(OC)c(NC(=O)CN2CCCN(Cc3ccccc3C)S2(=O)=O)cc1Cl`: 10.3%.

Take `Cc1cc(N2CCN(C)CC2)nc2ccc(NC(=S)NCCCN3CCc4ccccc4C3)cc12`: the inhibition is active: 34.1%.

`Cc1cccc(NC(=O)COc2ccc(-c3nn(C)c(=O)c4ccccc34)cc2)c1`: the inhibition is 7.69%. `CCOc1ccc(CCNC(=O)CCCc2nnc3n(CC)c(=O)c4sccc4n23)cc1OCC`: the inhibition was 0.0938%. In the case of `Cc1ccc(NC(=O)Cn2c(=O)n(Cc3nc(-c4ccccc4)no3)c(=O)c3ccccc32)cc1C`, the inhibition was -2.94%. Turning to `CCOc1ccc(NC(=O)CSc2nnc(-c3ccc(OCC)cc3)o2)cc1`, the inhibition was -3.38%.

Consider `COc1ccc(CNCCNC(=O)c2cccs2)cc1OC`, for which the inhibition was active: 39.5%. Turning to `Cc1ccc(CNC(=O)c2c(-c3ccccc3Cl)noc2C)o1`, the inhibition stood at 5.99%. `Cc1coc2cc3oc(=O)c(CC(=O)NCc4cccc(Cl)c4)c(C)c3cc12`: the inhibition was determined as 7.98%. Take `O=C(NCCc1ccccc1)c1nn(-c2ccc(F)cc2)nc1CO`: the inhibition was found to be 6.08%. On to `Cc1cccc(CNC(=O)c2ccc3nc(Cc4ccccc4)oc3c2)c1`, for which the inhibition stood at 27.3%. As to `CCOc1ccc(C2c3[nH]c4ccccc4c3CCN2C(=O)CSCc2ccc(F)cc2)cc1` (centres undefined), the inhibition is 11.1%. With `COc1ccc(NC(=O)CSc2nnc(NC(=O)NC3CCCCC3)s2)cc1OC` the figure was 1.54%; with `Cc1cccc(NC(=O)CS(=O)(=O)c2cccc3nsnc23)c1`, -25.8%. With `Cc1ccc(CCNC(=O)c2c3c(nc4ccccc24)C(=O)N(C2CCCCC2)C3)cc1` the figure was 13.8%; with `CC(=O)c1ccc(NS(=O)(=O)c2ccc3[nH]c4c(c3c2)CCCC4)cc1`, -5.48%.

`O=S1(=O)CCOC[C@H](c2ccccc2)N1Cc1ccccc1`: the inhibition is active: 30.2%. Consider `Cc1ccc(CNC(=O)c2c[nH]n3c(=O)c(Cc4ccc(Cl)cc4)c(C)nc23)cc1`, for which the inhibition is -3.1%. With `O=C(NCCN1CCc2ccccc2C1)C1CC(=O)N(C2CCCC2)C1` (centres undefined) the figure was active: 32.6%. On to `CCc1ccc(S(=O)(=O)c2cn(Cc3ccccc3F)c3cc(OC)c(OC)cc3c2=O)cc1`, for which the inhibition came to 1.55%.

Consider `COc1ccc(N2CCN(Cc3nc4c(c(=O)[nH]c(=O)n4C)n3CC(C)C)CC2)cc1`, for which the inhibition was 6.53%. `O=C(NCc1cccc(Br)c1)c1ccc(NC(=O)N2CCCCc3ccccc32)cc1`: the inhibition is 15.5%. For `COCc1cc(C)nc(SCc2ccc(F)cc2)c1C#N`, the inhibition was active: 41.6%. As for `Cc1ccc(S(=O)(=O)c2nnn3c2nc(NCCc2ccccc2)c2sccc23)cc1`, the inhibition was determined as 18.1%.
